Measurements reported in publication PMC11828465.
These are yes or no findings as the source states them, for the method shown. In cells and extracts the contact can be indirect. Where a sequence is shown, tags or fusion partners need not be part of it. One block for each binder: values may come before it.

Sequences of proteins named here, by UniProt entry; tags and fusion partners are left off. Residues count along the entry.
UniProt Q99523, residues 78-831: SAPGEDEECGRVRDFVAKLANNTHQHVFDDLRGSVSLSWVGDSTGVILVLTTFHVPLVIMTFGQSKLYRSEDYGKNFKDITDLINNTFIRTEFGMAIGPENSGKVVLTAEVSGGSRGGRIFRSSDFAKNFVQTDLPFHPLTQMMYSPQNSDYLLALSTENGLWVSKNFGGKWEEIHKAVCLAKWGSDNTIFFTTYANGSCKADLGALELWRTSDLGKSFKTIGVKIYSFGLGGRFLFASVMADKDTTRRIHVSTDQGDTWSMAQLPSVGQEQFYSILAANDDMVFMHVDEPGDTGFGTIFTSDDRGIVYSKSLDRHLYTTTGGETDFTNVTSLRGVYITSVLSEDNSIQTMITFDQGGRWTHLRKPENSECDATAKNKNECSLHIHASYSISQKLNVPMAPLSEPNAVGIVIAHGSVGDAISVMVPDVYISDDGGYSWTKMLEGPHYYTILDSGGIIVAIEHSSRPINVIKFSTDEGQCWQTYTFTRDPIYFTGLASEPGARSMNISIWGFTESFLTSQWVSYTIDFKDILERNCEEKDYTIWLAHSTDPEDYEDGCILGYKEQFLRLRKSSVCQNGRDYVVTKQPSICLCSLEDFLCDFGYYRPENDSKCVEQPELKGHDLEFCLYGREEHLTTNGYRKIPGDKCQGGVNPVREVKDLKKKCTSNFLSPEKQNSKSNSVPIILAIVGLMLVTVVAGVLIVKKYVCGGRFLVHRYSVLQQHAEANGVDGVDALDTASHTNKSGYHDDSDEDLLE
UniProt P62820: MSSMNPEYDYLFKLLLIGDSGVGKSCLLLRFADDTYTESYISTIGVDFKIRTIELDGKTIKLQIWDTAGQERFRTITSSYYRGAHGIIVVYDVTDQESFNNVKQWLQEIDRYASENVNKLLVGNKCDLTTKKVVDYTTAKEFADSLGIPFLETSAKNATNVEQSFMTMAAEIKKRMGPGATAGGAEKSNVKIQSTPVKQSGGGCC
UniProt P51149: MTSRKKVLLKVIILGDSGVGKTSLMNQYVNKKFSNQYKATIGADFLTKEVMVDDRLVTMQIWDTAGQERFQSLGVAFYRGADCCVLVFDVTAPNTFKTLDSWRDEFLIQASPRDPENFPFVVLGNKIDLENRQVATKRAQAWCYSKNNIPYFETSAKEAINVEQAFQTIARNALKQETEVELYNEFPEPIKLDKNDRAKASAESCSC

Experiments:
Assay in all cases: FRET or BRET; BRET titration curves in live wild-type HEK293 cells: constant amount of the RlucII fusion, increasing amounts of the GFP10 fusion; 48 h post transfection; cells in PBS, coelenterazine 400a 5 µM, read after 2 min at RT; BRET50 from BRETnet against GFP10 fluorescence/RlucII …
[1] = molecular target: sortilin–RlucII (UniProt Q99523)
[2] = molecular target: RlucII–Rab1a (UniProt P62820)
[3] = molecular target: RlucII–Rab7A wild-type (UniProt P51149)

binding [1]: no binding
B1: GFP10–Vps41 (protein, UniProt P49754 1-854)
chain: MAEAEEQETGSLEESTDESEEEESEEEPKLKYERLSNGVTEILQKDAASCMTVHDKFLALGTHYGKVYLLDVQGNITQKFDVSPVKINQISLDESGEHMGVCSEDGKVQVFGLYSGEEFHETFDCPIKIIAVHPHFVRSSCKQFVTGGKKLLLFERSWMNRWKSAVLHEGEGNIRSVKWRGHLIAWANNMGVKIFDIISKQRITNVPRDDISLRPDMYPCSLCWKDNVTLIIGWGTSVKVCSVKERHASEMRDLPSRYVEIVSQFETEFYISGLAPLCDQLVVLSYVKEISEKTEREYCARPRLDIIQPLSETCEEISSDALTVRGFQENECRDYHLEYSEGESLFYIVSPRDVVVAKERDQDDHIDWLLEKKKYEEALMAAEISQKNIKRHKILDIGLAYINHLVERGDYDIAARKCQKILGKNAALWEYEVYKFKEIGQLKAISPYLPRGDPVLKPLIYEMILHEFLESDYEGFATLIREWPGDLYNNSVIVQAVRDHLKKDSQNKTLLKTLAELYTYDKNYGNALEIYLTLRHKDVFQLIHKHNLFSSIKDKIVLLMDFDSEKAVDMLLDNEDKISIKKVVEELEDRPELQHVYLHKLFKRDHHKGQRYHEKQISLYAEYDRPNLLPFLRDSTHCPLEKALEICQQRNFVEETVYLLSRMGNSRSALKMIMEELHDVDKAIEFAKEQDDGELWEDLILYSIDKPPFITGLLNNIGTHVDPILLIHRIKEGMEIPNLRDSLVKILQDYNLQILLREGCKKILVADSLSLLKKMHRTQMKGVLVDEENICESCLSPILPSDAAKPFSVVVFHCRHMFHKECLPMPSMNSAAQFCNICSAKNRGPGSAILEMKK

binding [2]: no binding
B2: GFP10–FYCO1 (protein, UniProt Q9BQS8 1-1478)
chain: MASTNAESQLQRIIRDLQDAVTELSKEFQEAGEPITDDSTSLHKFSYKLEYLLQFDQKEKATLLGNKKDYWDYFCACLAKVKGANDGIRFVKSISELRTSLGKGRAFIRYSLVHQRLADTLQQCFMNTKVTSDWYYARSPFLQPKLSSDIVGQLYELTEVQFDLASRGFDLDAAWPTFARRTLTTGSSAYLWKPPSRSSSMSSLVSSYLQTQEMVSNFDLNSPLNNEALEGFDEMRLELDQLEVREKQLRERMQQLDRENQELRAAVSQQGEQLQTERERGRTAAEDNVRLTCLVAELQKQWEVTQATQNTVKELQTCLQGLELGAAEKEEDYHTALRRLESMLQPLAQELEATRDSLDKKNQHLASFPGWLAMAQQKADTASDTKGRQEPIPSDAAQEMQELGEKLQALERERTKVEEVNRQQSAQLEQLVKELQLKEDARASLERLVKEMAPLQEELSGKGQEADQLWRRLQELLAHTSSWEEELAELRREKKQQQEEKELLEQEVRSLTRQLQFLETQLAQVSQHVSDLEEQKKQLIQDKDHLSQQVGMLERLAGPPGPELPVAGEKNEALVPVNSSLQEAWGKPEEEQRGLQEAQLDDTKVQEGSQEEELRQANRELEKELQNVVGRNQLLEGKLQALQADYQALQQRESAIQGSLASLEAEQASIRHLGDQMEASLLAVRKAKEAMKAQMAEKEAILQSKEGECQQLREEVEQCQQLAEARHRELRALESQCQQQTQLIEVLTAEKGQQGVGPPTDNEARELAAQLALSQAQLEVHQGEVQRLQAQVVDLQAKMRAALDDQDKVQSQLSMAEAVLREHKTLVQQLKEQNEALNRAHVQELLQCSEREGALQEERADEAQQREEELRALQEELSQAKCSSEEAQLEHAELQEQLHRANTDTAELGIQVCALTVEKERVEEALACAVQELQDAKEAASREREGLERQVAGLQQEKESLQEKLKAAKAAAGSLPGLQAQLAQAEQRAQSLQEAAHQELNTLKFQLSAEIMDYQSRLKNAGEECKSLRGQLEEQGRQLQAAEEAVEKLKATQADMGEKLSCTSNHLAECQAAMLRKDKEGAALREDLERTQKELEKATTKIQEYYNKLCQEVTNRERNDQKMLADLDDLNRTKKYLEERLIELLRDKDALWQKSDALEFQQKLSAEERWLGDTEANHCLDCKREFSWMVRRHHCRICGRIFCYYCCNNYVLSKHGGKKERCCRACFQKLSEGPGSPDSSGSGTSQGEPSPALSPASPGPQATGGQGANTDYRPPDDAVFDIITDEELCQIQESGSSLPETPTETDSLDPNAAEQDTTSTSLTPEDTEDMPVGQDSEICLLKSGELMIKVPLTVDEIASFGEGSRELFVRSSTYSLIPITVAEAGLTISWVFSSDPKSISFSVVFQEAEDTPLDQCKVLIPTTRCNSHKENIQGQLKVRTPGIYMLIFDNTFSRFVSKKVFYHLTVDRPVIYDGSDFL

binding [3]: no binding
B3: µ1–GFP10 (protein, UniProt Q9BXS5 1-423)
chain: MSASAVYVLDLKGKVLICRNYRGDVDMSEVEHFMPILMEKEEEGMLSPILAHGGVRFMWIKHNNLYLVATSKKNACVSLVFSFLYKVVQVFSEYFKELEEESIRDNFVIIYELLDELMDFGYPQTTDSKILQEYITQEGHKLETGAPRPPATVTNAVSWRSEGIKYRKNEVFLDVIESVNLLVSANGNVLRSEIVGSIKMRVFLSGMPELRLGLNDKVLFDNTGRGKSKSVELEDVKFHQCVRLSRFENDRTISFIPPDGEFELMSYRLNTHVKPLIWIESVIEKHSHSRIEYMIKAKSQFKRRSTANNVEIHIPVPNDADSPKFKTTVGSVKWVPENSEIVWSIKSFPGGKEYLMRAHFGLPSVEAEDKEGKPPISVKFEIPYFTTSGIQVRYLKIIEKSGYQALPWVRYITQNGDYQLRTQ
